49 variants from the GPR68 mutational scans of Howard et al. (2025) can be followed below.

First the molecules themselves.
B1: GPR68, Q15743 (parent)
chain: MGNITADNSSMSCTIDHTIHQTLAPVVYVTVLVVGFPANCLSLYFGYLQIKARNELGVYLCNLTVADLFYICSLPFWLQYVLQHDNWSHGDLSCQVCGILLYENIYISVGFLCCISVDRYLAVAHPFRFHQFRTLKAAVGVSVVIWAKELLTSIYFLMHEEVIEDENQHRVCFEHYPIQAWQRAINYYRFLVGFLFPICLLLASYQGILRAVRRSHGTQKSRKDQIQRLVLSTVVIFLACFLPYHVLLLVRSVWEASCDFAKGVFNAYHFSLLLTSFNCVADPVLYCFVSETTHRDLARLRGACLAFLTCSRTGRAREAYPLGAPEASGKSGAQGEEPELLTKLHPAFQTPNSPGSGGFPTGRLA

The variants in data set [1] derive from B1. Briefly: cAMP reporter score (Enrich2 score, wild type = 0); higher = more signal; HEK293T, FACS bins.
The variants in data set [2] derive from B1. Briefly: surface expression score (Enrich2 score, wild type = 0); higher = more signal; HEK293T, FACS bins.

The least precise scores are not listed. Two further conditions of the source, in which the scores hardly spread, are not listed. In variant names, del marks residues removed and ins residues inserted between the two positions. For some of these results: The data file names ogerin without a concentration.

With A316_R317insGS, the cAMP reporter score in data set [1] (pH 6) is 1.28; in data set [1] (pH 6, modulator: ogerin), 0.683; in data set [1] (pH 6.5, modulator: ogerin), 1.24. The surface expression score in data set [2] is 0.969.
As for A147R, the cAMP reporter score is -2.07 in data set [1] (pH 6); -1.85 in data set [1] (pH 6, modulator: ogerin); 0.468 in data set [1] (pH 6.5, modulator: ogerin). In addition, the surface expression score in data set [2] was -1.11.
For A147W, the cAMP reporter score is -0.377 in data set [1] (pH 6) and -0.431 in data set [1] (pH 6.5, modulator: ogerin). For the same variant, the surface expression score in data set [2] was -0.415.
C72M: in data set [1] (pH 6.5, modulator: ogerin), the cAMP reporter score was 1.39. Further, in data set [2], the surface expression score turned out to be 0.337.
For the variant C72P, in data set [1] (pH 6.5, modulator: ogerin), the cAMP reporter score is -1.26. Besides, in data set [2], the surface expression score is -2.54.
For V234_V235insG, in data set [1] (pH 6.5, modulator: ogerin), the cAMP reporter score was -1.11.
With R170T, in data set [1] (pH 6, modulator: ogerin), the cAMP reporter score is -0.644. Also, the surface expression score in data set [2] is 4.57.
Regarding V289P, the cAMP reporter score in data set [1] (pH 6) is 1; in data set [1] (pH 6, modulator: ogerin) it was 0.89; in data set [1] (pH 6.5, modulator: ogerin) it was -0.154. In addition, the surface expression score in data set [2] is -1.71.
With D118_R119insGS, the cAMP reporter score in data set [1] (pH 6, modulator: ogerin) is -0.746. Besides, the surface expression score in data set [2] was -1.33.
With C72_S73del, the cAMP reporter score in data set [1] (pH 6.5, modulator: ogerin) is -0.425. Further, in data set [2], the surface expression score was -3.21.
Regarding R128_F129insG, in data set [1] (pH 6.5, modulator: ogerin), the cAMP reporter score was -0.331.
As to V117del, the cAMP reporter score in data set [1] (pH 6) was -0.753; in data set [1] (pH 6.5, modulator: ogerin), -1.54.
Turning to R312V, the cAMP reporter score was -0.463 in data set [1] (pH 6); 1.21 in data set [1] (pH 6, modulator: ogerin); 0.001 in data set [1] (pH 6.5, modulator: ogerin). Also, in data set [2], the surface expression score is -0.375.
With R312G, the cAMP reporter score in data set [1] (pH 6) amounted to 2.98; in data set [1] (pH 6, modulator: ogerin), 1.75. Further, the surface expression score in data set [2] stood at 1.93.
Take R312P: the cAMP reporter score in data set [1] (pH 6) is -0.159; in data set [1] (pH 6, modulator: ogerin), 0.482; in data set [1] (pH 6.5, modulator: ogerin) it was -1.02. In addition, the surface expression score in data set [2] was -0.325.
As to L56Y, in data set [1] (pH 6.5, modulator: ogerin), the cAMP reporter score was -2.54. The surface expression score in data set [2] was -1.77.
On to H294_R295insGS, for which the cAMP reporter score in data set [1] (pH 6) is 1.75; in data set [1] (pH 6.5, modulator: ogerin), -0.685.
As to G98C, the cAMP reporter score in data set [1] (pH 6, modulator: ogerin) is -0.686; in data set [1] (pH 6.5, modulator: ogerin), -0.432.
G98M: the cAMP reporter score is -0.642 in data set [1] (pH 6, modulator: ogerin) and -0.421 in data set [1] (pH 6.5, modulator: ogerin).
G98Q: the cAMP reporter score is -0.684 in data set [1] (pH 6, modulator: ogerin) and -0.784 in data set [1] (pH 6.5, modulator: ogerin).
Turning to L191C, the cAMP reporter score in data set [1] (pH 6) is 0.83; in data set [1] (pH 6, modulator: ogerin), 1.26; in data set [1] (pH 6.5, modulator: ogerin), -0.012. The surface expression score in data set [2] came to 2.48.
Turning to L41H, the cAMP reporter score in data set [1] (pH 6, modulator: ogerin) is -0.683; in data set [1] (pH 6.5, modulator: ogerin), -1.52. Moreover, in data set [2], the surface expression score was -1.18.
Take L249D: the cAMP reporter score in data set [1] (pH 6.5, modulator: ogerin) is -0.423. The surface expression score in data set [2] is -4.02.
For the variant L322T, in data set [1] (pH 6.5, modulator: ogerin), the cAMP reporter score stood at 0.206.
For the variant K148_E149insGSG, the cAMP reporter score in data set [1] (pH 6, modulator: ogerin) was -2.93; in data set [1] (pH 6.5, modulator: ogerin), -0.971.
For L247E, the cAMP reporter score in data set [1] (pH 6) is -1.06; in data set [1] (pH 6, modulator: ogerin), -1.07.
As to V81R, in data set [1] (pH 6.5, modulator: ogerin), the cAMP reporter score turned out to be 2.95. For the same variant, the surface expression score in data set [2] is -0.423.
On to R315E, for which the cAMP reporter score in data set [1] (pH 6) is 1.12; in data set [1] (pH 6, modulator: ogerin), -0.161. The surface expression score in data set [2] was determined as 2.12.
As to Y187_Y188insG, the cAMP reporter score in data set [1] (pH 6) was 0.408; in data set [1] (pH 6, modulator: ogerin), -0.682.
For the variant S42D, the cAMP reporter score in data set [1] (pH 6, modulator: ogerin) is -2.19; in data set [1] (pH 6.5, modulator: ogerin), 0.242. In addition, the surface expression score in data set [2] is -3.62.
In the case of I198_C199del, the cAMP reporter score in data set [1] (pH 6, modulator: ogerin) is -1.05; in data set [1] (pH 6.5, modulator: ogerin) it was -1.42. In addition, the surface expression score in data set [2] was -1.19.
Regarding F36_P37insGSG, the cAMP reporter score was -0.347 in data set [1] (pH 6, modulator: ogerin) and -1.51 in data set [1] (pH 6.5, modulator: ogerin).
For F359C, the cAMP reporter score in data set [1] (pH 6, modulator: ogerin) worked out at 0.196; in data set [1] (pH 6.5, modulator: ogerin), 0.837. Further, the surface expression score in data set [2] worked out at 1.77.
In the case of L202del, the cAMP reporter score is -0.119 in data set [1] (pH 6) and -0.064 in data set [1] (pH 6, modulator: ogerin).
For Y106_I107insGSG, in data set [1] (pH 6.5, modulator: ogerin), the cAMP reporter score is -0.332.
On to C287L, for which the cAMP reporter score in data set [1] (pH 6) is -0.995; in data set [1] (pH 6.5, modulator: ogerin), -1.07. Also, the surface expression score in data set [2] came to 0.539.
For the variant V26K, the cAMP reporter score in data set [1] (pH 6, modulator: ogerin) is -2.78; in data set [1] (pH 6.5, modulator: ogerin), -2.34.
For V26H, the cAMP reporter score in data set [1] (pH 6, modulator: ogerin) was -1.36; in data set [1] (pH 6.5, modulator: ogerin), -0.395. For the same variant, the surface expression score in data set [2] was -0.289.
As for P75M, the surface expression score in data set [2] is -0.319.
For the variant P75A, the cAMP reporter score in data set [1] (pH 6.5, modulator: ogerin) was determined as 0.25. Moreover, the surface expression score in data set [2] is -1.21.
With P75D, the cAMP reporter score in data set [1] (pH 6, modulator: ogerin) was -1.46; in data set [1] (pH 6.5, modulator: ogerin), -1.26. Further, the surface expression score in data set [2] was -2.81.
Regarding D296L, the cAMP reporter score in data set [1] (pH 6) is -0.489; in data set [1] (pH 6, modulator: ogerin) it was 0; in data set [1] (pH 6.5, modulator: ogerin) it was -0.432. In addition, in data set [2], the surface expression score is -0.425.
On to A211G, for which the cAMP reporter score was -0.644 in data set [1] (pH 6) and 0.134 in data set [1] (pH 6.5, modulator: ogerin). The surface expression score in data set [2] came out at 2.01.
In the case of A211W, in data set [1] (pH 6.5, modulator: ogerin), the cAMP reporter score is -2.38. Moreover, in data set [2], the surface expression score was 1.29.
Take V234L: the cAMP reporter score is -0.286 in data set [1] (pH 6); -0.259 in data set [1] (pH 6, modulator: ogerin); 0.351 in data set [1] (pH 6.5, modulator: ogerin). The surface expression score in data set [2] amounted to 0.779.
Consider I185H, for which the cAMP reporter score in data set [1] (pH 6) is -0.174; in data set [1] (pH 6.5, modulator: ogerin), -0.603.
Turning to L231_S232insG, the cAMP reporter score was -1.28 in data set [1] (pH 6, modulator: ogerin) and -1.49 in data set [1] (pH 6.5, modulator: ogerin).
Regarding H294V, the cAMP reporter score in data set [1] (pH 6.5, modulator: ogerin) is 0.002. In addition, in data set [2], the surface expression score was 0.212.
For S271Y, the cAMP reporter score in data set [1] (pH 6) is -1.06; in data set [1] (pH 6, modulator: ogerin), -1.75; in data set [1] (pH 6.5, modulator: ogerin) it was -2.77.
